The other results are listed elsewhere or left out. Values were computed here from the reads of four pooled replicates and scatter widely.
The sequences below were run against T1, Pho4 (S. cerevisiae) (UniProt P07270) (assay: relative binding free energy (BET-seq); higher = weaker binding). Settings: reference: library average.
T1 sequence: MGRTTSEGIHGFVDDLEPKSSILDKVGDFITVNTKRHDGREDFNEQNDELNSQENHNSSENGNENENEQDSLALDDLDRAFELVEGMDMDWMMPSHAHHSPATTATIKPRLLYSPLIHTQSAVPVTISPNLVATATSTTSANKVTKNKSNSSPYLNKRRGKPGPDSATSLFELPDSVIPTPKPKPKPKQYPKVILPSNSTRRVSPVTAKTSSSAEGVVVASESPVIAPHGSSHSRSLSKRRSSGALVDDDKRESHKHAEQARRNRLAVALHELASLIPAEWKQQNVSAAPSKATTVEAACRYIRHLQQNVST
With GCGCGCACGTGGGTGG the “relative binding free energy” value was -0.37 kcal/mol.
For TTTGGCACGTGAAAGA, the “relative binding free energy” value was 0.29 kcal/mol.
GTTTTCACGTGTCGGC was tested, and the “relative binding free energy” value was 0.33 kcal/mol.
GGGTTCACGTGAGGTC was tested, and the “relative binding free energy” value was 0.56 kcal/mol.
In the case of ATGGGCACGTGTCGAT, the “relative binding free energy” value is reported as -0.2 kcal/mol.
In the case of TTGGTCACGTGATCAG, the “relative binding free energy” value is reported as 0.3 kcal/mol.
In the case of CTCTGCACGTGGGGTG, the “relative binding free energy” value is reported as -0.38 kcal/mol.
With GGTCACACGTGATGGG the “relative binding free energy” value was 0.22 kcal/mol.
TGGGACACGTGCTGTG was tested, and the “relative binding free energy” value was 0 kcal/mol.
AGTGGCACGTGTTTTG was tested, and the “relative binding free energy” value was 0 kcal/mol.
With TTTATCACGTGGAGCA the “relative binding free energy” value was 0.09 kcal/mol.
In the case of GTGTGCACGTGGTGTT, the “relative binding free energy” value is reported as -0.1 kcal/mol.
With AACGTCACGTGTGGTT the “relative binding free energy” value was 0.22 kcal/mol.
For ACTGACACGTGGTGTT, the “relative binding free energy” value was -0.1 kcal/mol.
For GCTGGCACGTGGGGTA, the “relative binding free energy” value was -0.3 kcal/mol.
With GGTGACACGTGGATAT the “relative binding free energy” value was -0.09 kcal/mol.
AGAAGCACGTGGTGTC was tested, and the “relative binding free energy” value was -0.18 kcal/mol.
CGAGACACGTGGTTTT was tested, and the “relative binding free energy” value was 0.01 kcal/mol.
With TAGCACACGTGGTTTG the “relative binding free energy” value was 0.09 kcal/mol.
With CTGGCCACGTGGTGGT the “relative binding free energy” value was -0.28 kcal/mol.
For AATGCCACGTGGGTGG, the “relative binding free energy” value was -0.16 kcal/mol.
GTTGACACGTGAAAGG was tested, and the “relative binding free energy” value was 0.09 kcal/mol.
CTAGCCACGTGGGTGG was tested, and the “relative binding free energy” value was -0.26 kcal/mol.
With TTGTGCACGTGGCATA the “relative binding free energy” value was -0.12 kcal/mol.
ATCGACACGTGTAGTG was tested, and the “relative binding free energy” value was 0.02 kcal/mol.
For TGAATCACGTGGTAAA, the “relative binding free energy” value was 0.17 kcal/mol.
In the case of TAGCTCACGTGTTAAT, the “relative binding free energy” value is reported as 0.17 kcal/mol.
In the case of TAAGGCACGTGCTGTT, the “relative binding free energy” value is reported as -0.11 kcal/mol.
GAGGACACGTGGGTGG was tested, and the “relative binding free energy” value was -0.1 kcal/mol.
For GGGTGCACGTGTAGAT, the “relative binding free energy” value was 0.28 kcal/mol.
In the case of TGTGGCACGTGGAAAA, the “relative binding free energy” value is reported as 0.08 kcal/mol.
For TGTAACACGTGATTAG, the “relative binding free energy” value was -0.01 kcal/mol.
In the case of AGGTGCACGTGTGATA, the “relative binding free energy” value is reported as 0.05 kcal/mol.
AGAAACACGTGGTATG was tested, and the “relative binding free energy” value was 0.04 kcal/mol.
For AGTATCACGTGGATAT, the “relative binding free energy” value was 0.16 kcal/mol.
In the case of TATATCACGTGTGGGT, the “relative binding free energy” value is reported as 0.28 kcal/mol.
With ATGTCCACGTGTTTTG the “relative binding free energy” value was -0.05 kcal/mol.
In the case of AGTATCACGTGGGTGT, the “relative binding free energy” value is reported as -0.03 kcal/mol.
For TATATCACGTGCTGGT, the “relative binding free energy” value was 0.05 kcal/mol.
For TGTTACACGTGCTTTT, the “relative binding free energy” value was 0.11 kcal/mol.
With GAGTGCACGTGAATGT the “relative binding free energy” value was 0.28 kcal/mol.
For ATGAGCACGTGCTAGT, the “relative binding free energy” value was -0.21 kcal/mol.
With TTATGCACGTGTATAA the “relative binding free energy” value was -0.11 kcal/mol.
TTGTGCACGTGAGACG was tested, and the “relative binding free energy” value was 0.1 kcal/mol.
In the case of CTTTACACGTGGTTTA, the “relative binding free energy” value is reported as -0.03 kcal/mol.
For GATTGCACGTGGTATT, the “relative binding free energy” value was 0.11 kcal/mol.
In the case of TGTGTCACGTGAATTC, the “relative binding free energy” value is reported as 0.2 kcal/mol.
With AGGTTCACGTGGGCCA the “relative binding free energy” value was 0.13 kcal/mol.
In the case of GTTGTCACGTGTGTCT, the “relative binding free energy” value is reported as 0.28 kcal/mol.
GGTAACACGTGTGTTA was tested, and the “relative binding free energy” value was -0.08 kcal/mol.
In the case of ACGGTCACGTGTGGGC, the “relative binding free energy” value is reported as 0.13 kcal/mol.
With CTATGCACGTGTGGAT the “relative binding free energy” value was 0 kcal/mol.
TGATTCACGTGAGATG was tested, and the “relative binding free energy” value was 0.51 kcal/mol.
With GAAGGCACGTGTTAGA the “relative binding free energy” value was 0.05 kcal/mol.
In the case of CATTTCACGTGGGGGC, the “relative binding free energy” value is reported as 0.19 kcal/mol.
GCGGGCACGTGCTAGG was tested, and the “relative binding free energy” value was -0.26 kcal/mol.
TCGCGCACGTGTTAGT was tested, and the “relative binding free energy” value was -0.03 kcal/mol.
In the case of GCATGCACGTGTTTTT, the “relative binding free energy” value is reported as 0.1 kcal/mol.
GAGGGCACGTGTGCTT was tested, and the “relative binding free energy” value was -0.03 kcal/mol.
AAAGGCACGTGCTGTT was tested, and the “relative binding free energy” value was -0.16 kcal/mol.
In the case of TTGTACACGTGTAGTC, the “relative binding free energy” value is reported as 0.13 kcal/mol.
TAGGGCACGTGGGCTC was tested, and the “relative binding free energy” value was -0.26 kcal/mol.
For TGGTGCACGTGTTGAT, the “relative binding free energy” value was 0.03 kcal/mol.
In the case of GGTTGCACGTGTAGAA, the “relative binding free energy” value is reported as 0.02 kcal/mol.
In the case of GATTTCACGTGGTTGT, the “relative binding free energy” value is reported as 0.42 kcal/mol.
For CTTAGCACGTGTTTAG, the “relative binding free energy” value was -0.13 kcal/mol.
For CGGTTCACGTGTGTTC, the “relative binding free energy” value was 0.35 kcal/mol.
For CGTTACACGTGGTTGA, the “relative binding free energy” value was 0.07 kcal/mol.
In the case of GTCGTCACGTGGTAAT, the “relative binding free energy” value is reported as 0.08 kcal/mol.
For TATGGCACGTGAAGGT, the “relative binding free energy” value was 0.17 kcal/mol.
ACTATCACGTGTAGGG was tested, and the “relative binding free energy” value was 0.22 kcal/mol.
In the case of TACTTCACGTGTCGGG, the “relative binding free energy” value is reported as 0.37 kcal/mol.
GGGAGCACGTGTAGAG was tested, and the “relative binding free energy” value was -0.1 kcal/mol.
TCGGTCACGTGGCGCG was tested, and the “relative binding free energy” value was 0.1 kcal/mol.
With AGTGACACGTGGATGA the “relative binding free energy” value was -0.08 kcal/mol.
For ATAGGCACGTGTGATT, the “relative binding free energy” value was 0.07 kcal/mol.
For GTCGGCACGTGTTTAA, the “relative binding free energy” value was 0.02 kcal/mol.
With TGTAACACGTGAGAGT the “relative binding free energy” value was 0.29 kcal/mol.
ATGGGCACGTGGAAGG was tested, and the “relative binding free energy” value was -0.06 kcal/mol.
GGGGTCACGTGGTCCG was tested, and the “relative binding free energy” value was -0.04 kcal/mol.
For GGTGACACGTGCGCGT, the “relative binding free energy” value was -0.07 kcal/mol.
With TTAGGCACGTGTGGTT the “relative binding free energy” value was 0.01 kcal/mol.
For ATGTTCACGTGGACGT, the “relative binding free energy” value was 0.19 kcal/mol.
In the case of TAGCGCACGTGATTTT, the “relative binding free energy” value is reported as 0.05 kcal/mol.
For GTTGCCACGTGTATAT, the “relative binding free energy” value was -0.02 kcal/mol.
With GTCATCACGTGGGTCT the “relative binding free energy” value was 0 kcal/mol.
With TATGGCACGTGTGTGG the “relative binding free energy” value was -0.06 kcal/mol.
In the case of GGGATCACGTGAGATT, the “relative binding free energy” value is reported as 0.33 kcal/mol.
For TTTGGCACGTGTCGGT, the “relative binding free energy” value was 0.06 kcal/mol.
TTTGACACGTGCGTAA was tested, and the “relative binding free energy” value was 0.02 kcal/mol.
In the case of AAGGTCACGTGTCTGT, the “relative binding free energy” value is reported as 0.14 kcal/mol.
In the case of CTTCGCACGTGGTTTT, the “relative binding free energy” value is reported as -0.05 kcal/mol.
For TGTGTCACGTGTCTTG, the “relative binding free energy” value was 0.07 kcal/mol.
In the case of TATAGCACGTGGTCGT, the “relative binding free energy” value is reported as -0.29 kcal/mol.
In the case of TAGGGCACGTGCTGTC, the “relative binding free energy” value is reported as -0.08 kcal/mol.
With CGTGCCACGTGTGGTT the “relative binding free energy” value was -0.1 kcal/mol.
With GGCTTCACGTGTTGGA the “relative binding free energy” value was 0.39 kcal/mol.
In the case of GCTAACACGTGGGGAT, the “relative binding free energy” value is reported as 0.12 kcal/mol.
With GGTGTCACGTGGTGAG the “relative binding free energy” value was 0.13 kcal/mol.
For GGAGTCACGTGGTATC, the “relative binding free energy” value was 0.11 kcal/mol.
GCCGGCACGTGTGTGG was tested, and the “relative binding free energy” value was 0.06 kcal/mol.
With TTAGTCACGTGAGCAG the “relative binding free energy” value was 0.27 kcal/mol.
In the case of AAGAGCACGTGCGGTA, the “relative binding free energy” value is reported as -0.12 kcal/mol.
For TCATTCACGTGTGGAG, the “relative binding free energy” value was 0.3 kcal/mol.
With TGCTGCACGTGGGAAG the “relative binding free energy” value was -0.2 kcal/mol.
For ATTGACACGTGTGGGT, the “relative binding free energy” value was 0.06 kcal/mol.
TAGAACACGTGATGGG was tested, and the “relative binding free energy” value was 0.13 kcal/mol.
With CTTGACACGTGTAGTA the “relative binding free energy” value was 0.11 kcal/mol.
With GGGTGCACGTGCGGAA the “relative binding free energy” value was -0.06 kcal/mol.
In the case of TGTGGCACGTGGATAC, the “relative binding free energy” value is reported as -0.1 kcal/mol.
In the case of TGTGGCACGTGTCAGG, the “relative binding free energy” value is reported as -0.09 kcal/mol.
With CTTGGCACGTGAAATG the “relative binding free energy” value was 0.04 kcal/mol.
In the case of TTTGTCACGTGAGCGC, the “relative binding free energy” value is reported as 0.21 kcal/mol.
In the case of AGATACACGTGGTCGG, the “relative binding free energy” value is reported as -0.03 kcal/mol.
For CGTTCCACGTGGGGTG, the “relative binding free energy” value was -0.2 kcal/mol.
